Results are given in words; binding and its absence hold for the method and conditions named. Some results given as binding are weak or reduced against the parent protein; the word gives no strength.

Amino acid sequences for entries named in this document (tags omitted).
UniProt Q9SV55: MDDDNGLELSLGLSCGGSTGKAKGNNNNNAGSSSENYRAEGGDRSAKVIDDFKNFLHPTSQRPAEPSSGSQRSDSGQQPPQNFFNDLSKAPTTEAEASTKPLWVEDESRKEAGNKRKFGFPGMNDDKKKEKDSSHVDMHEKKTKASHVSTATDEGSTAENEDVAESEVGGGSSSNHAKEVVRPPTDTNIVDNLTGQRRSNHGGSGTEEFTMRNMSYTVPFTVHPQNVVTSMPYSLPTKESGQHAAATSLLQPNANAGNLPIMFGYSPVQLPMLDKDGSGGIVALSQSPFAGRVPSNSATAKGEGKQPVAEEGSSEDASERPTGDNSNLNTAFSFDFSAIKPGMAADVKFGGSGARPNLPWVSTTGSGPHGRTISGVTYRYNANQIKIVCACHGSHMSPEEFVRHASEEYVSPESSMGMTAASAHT
UniProt Q7XA73: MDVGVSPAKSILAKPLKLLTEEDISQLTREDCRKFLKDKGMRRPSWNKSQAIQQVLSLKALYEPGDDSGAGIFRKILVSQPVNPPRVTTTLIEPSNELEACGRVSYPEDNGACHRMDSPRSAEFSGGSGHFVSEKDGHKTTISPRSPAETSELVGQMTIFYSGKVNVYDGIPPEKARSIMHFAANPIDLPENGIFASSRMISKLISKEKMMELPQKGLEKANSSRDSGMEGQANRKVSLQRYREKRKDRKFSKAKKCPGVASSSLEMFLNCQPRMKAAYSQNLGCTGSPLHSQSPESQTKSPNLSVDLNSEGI
UniProt P93830: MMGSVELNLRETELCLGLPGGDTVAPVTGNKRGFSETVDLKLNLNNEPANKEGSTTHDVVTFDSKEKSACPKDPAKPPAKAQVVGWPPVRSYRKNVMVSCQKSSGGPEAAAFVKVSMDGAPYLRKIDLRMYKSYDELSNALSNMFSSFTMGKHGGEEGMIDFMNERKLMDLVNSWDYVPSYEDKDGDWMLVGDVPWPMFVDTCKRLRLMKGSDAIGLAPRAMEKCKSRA
UniProt Q9SZJ6: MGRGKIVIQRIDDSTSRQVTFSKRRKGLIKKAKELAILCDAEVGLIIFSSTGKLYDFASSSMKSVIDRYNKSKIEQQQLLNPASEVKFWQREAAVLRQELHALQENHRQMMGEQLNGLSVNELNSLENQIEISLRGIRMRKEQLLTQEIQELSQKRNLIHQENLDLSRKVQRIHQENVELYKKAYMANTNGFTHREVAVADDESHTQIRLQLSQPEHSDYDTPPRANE

First the molecules themselves.
B1: JAZ4, cloned prey (protein, UniProt Q58G47 1-310)
chain: MERDFLGLGSKLSPITVKEETNEDSAPSRGMMDWSFSSKVGSGPQFLSFGTSQQETRVNTVNDHLLSSAAMDQNQRTYFSSLQEDRVFPGSSQQDQTTITVSMSEPNYINSFINHQHLGGSPIMAPPVSVFPAPTTIRSSSKPLPPQLTIFYAGSVLVYQDIAPEKAQAIMLLAGNGPHAKPVSQPKPQKLVHHSLPTTDPPTMPPSFLPSISYIVSETRSSGSNGVTGLGPTKTKASLASTRNNQTAAFSMAPTVGLPQTRKASLARFLEKRKERVINVSPYYVDNKSSIDCRTLMSECVSCPPAHHLH
B2: JAZ2, cloned prey (protein, UniProt Q9S7M2 1-249)
chain: MSSFSAECWDFSGRKPSFSQTCTRLSRYLKEKGSFGDLSLGMTCKPDVNGGSRQPTMMNLFPCEASGMDSSAGQEDIKPKTMFPRQSSFSSSSSSGTKEDVQMIKETTKSVKPESQSAPLTIFYGGRVMVFDDFSAEKAKEVIDLANKGSAKSFTCFTAEVNNNHSAYSQKEIASSPNPVCSPAKTAAQEPIQPNPASLACELPIARRASLHRFLEKRKDRITSKAPYQIDGSAEASSKPTNPAWLSSR
B3: AT4G36480, cloned prey (protein, UniProt Q94IB8 1-482)
chain: MASNLVEMFNAALNWVTMILESPSARVVLFGVPIRGHFFVEGLLGVVIIILLTRKSYKPPKRPLTEQEIDELCDEWVPEPLIPPITEDMKHEPPVLESAAGPHTTVNGKDVVNFASANYLGLIGHEKLLESCTSALEKYGVGSCGPRGFYGTIDVHLDCETRISKFLGTPDSILYSYGLSTMFSTIPCFCKKGDVIVADEGVHWGIQNGLQLSRSTIVYFKHNDMESLRITLEKIMTKYKRSKNLRRYIVAEAVYQNSGQIAPLDEIVKLKEKYRFRVILDESNSFGVLGRSGRGLAEHHSVPIEKIDVVTAAMGHALATEGGFCTGNARIIDYQRLSSSGYVFSASLPPYLASAAITAIDVIDQNPDMLVKLKQNVALLWKGLSDIKGMSLTSNRESPIVFLKLEKSSGSAKDDLLLLEKMADRALKEDSLLVVSSKRSFLDKCRLPVGIKLYVSAGHSESDLLKASESLKRLASELLLKS
B4: A. thaliana indole-3-acetic acid inducible 2 (IAA2), library prey (protein, UniProt P49678 1-174)
chain: MAYEKVNELNLKDTELCLGLPGRTEKIKEEQEVSCVKSNNKRLFEETRDEEESTPPTKTQIVGWPPVRSSRKNNNSVSYVKVSMDGAPYLRKIDLKTYKNYPELLKALENMFKVMIGEYCEREGYKGSGFVPTYEDKDGDWMLVGDVPWDMFSSSCKRLRIMKGSDAPALDSSL
B5: IAA11 (AT4G28640), library prey (protein, UniProt Q38829 1-246)
chain: MEGGSASGSASALSNDENLVVSCEDSSSPIGNELELGLTLSLGRKGYRDCRVYADDSSSSSSSSSLSRASVIAGIKRTADSMAATSGQVVGWPPIRTYRMNSMVNQAKASATEDPNLEISQAVNKNRSDSTKMRNSMFVKVTMDGIPIGRKIDLNAHKCYESLSNTLEEMFLKPKLGSRTLETDGHMETPVKILPDGSSGLVLTYEDKEGDWMLVGDVPWGMFIGSVRRLRIMKTSEATGKAQMIL
B6: A. thaliana indole-3-acetic acid inducible 28 (IAA28), library prey (protein, UniProt Q9XFM0 1-175)
chain: MEEEKRLELRLAPPCHQFTSNNNINGSKQKSSTKETSFLSNNRVEVAPVVGWPPVRSSRRNLTAQLKEEMKKKESDEEKELYVKINMEGVPIGRKVNLSAYNNYQQLSHAVDQLFSKKDSWDLNRQYTLVYEDTEGDKVLVGDVPWEMFVSTVKRLHVLKTSHAFSLSPRKHGKE
B7: AGL15 (AT5G13790), library prey (protein, UniProt Q38847 1-268)
chain: MGRGKIEIKRIENANSRQVTFSKRRSGLLKKARELSVLCDAEVAVIVFSKSGKLFEYSSTGMKQTLSRYGNHQSSSASKAEEDCAEVDILKDQLSKLQEKHLQLQGKGLNPLTFKELQSLEQQLYHALITVRERKERLLTNQLEESRLKEQRAELENETLRRQVQELRSFLPSFTHYVPSYIKCFAIDPKNALINHDSKCSLQNTDSDTTLQLGLPGEAHDRRTNEGERESPSSDSVTTNTSSETAERGDQSSLANSPPEAKRQRFSV
B8: IAA18 (AT1G51950), library prey (protein, UniProt O24408 1-267)
chain: MEGYSRNGEISPKLLDLMIPQERRNWFHDEKNSVFKTEEKKLELKLGPPGEEDDDESMIRHMKKEPKDKSILSLAGKYFSPSSTKTTSHKRTAPGPVVGWPPVRSFRKNLASGSSSKLGNDSTTSNGVTLKNQKCDAAAKTTEPKRQGGMFVKINMYGVPIGRKVDLSAHNSYEQLSFTVDKLFRGLLAAQRDFPSSIEDEKPITGLLDGNGEYTLTYEDNEGDKMLVGDVPWQMFVSSVKRLRVIKTSEISSALTYGNGKQEKMRR
B9: IAA13 (AT2G33310), library prey (protein, UniProt Q38831 1-247)
chain: MITELEMGKGESELELGLGLSLGGGTAAKIGKSGGGGAWGERGRLLTAKDFPSVGSKRAADSASHAGSSPPRSSSQVVGWPPIGSHRMNSLVNNQATKSAREEEEAGKKKVKDDEPKDVTKKVNGKVQVGFIKVNMDGVAIGRKVDLNAHSSYENLAQTLEDMFFRTNPGTVGLTSQFTKPLRLLDGSSEFVLTYEDKEGDWMLVGDVPWRMFINSVKRLRVMKTSEANGLAARNQEPNERQRKQPV
B10: IAA27 (AT4G29080), library prey (protein, UniProt Q9ZSY8 1-305)
chain: MSVSVAAEHDYIGLSEFPTMEATTMSDKTKTRDNNNGLNFKATELRLGLPGSESPERVDSRFLALNKSSCPVSGAKRVFSDAINDSNKWVFSPGSTTATGDVGSGSGPRTSVVKDGKSTTFTKPAVPVKEKKSSATAPASKAQVVGWPPIRSFRKNSMASSQSQKPGNNSETEEAEAKSGPEQPCLYVKVSMEGAPYLRKIDLKTYKSYLELSSALEKMFSCFTIGQFGSHGGCGRDGLNESRLTDLLRGSEYVVTYEDKDSDWMLVGDVPWEMFICSCKKLRIMKSSEAIGLAPRVMEKCRSRN
B11: IAA10 (AT1G04100), library prey (protein, UniProt Q38828 1-261)
chain: MNGLQEVCSSSGSVMIGLPAEEDENAAHSSEDSSCPDESVSETELDLALGLSIGRRKVRSSLSSSSSSLTRESGTKRSADSSPAAASNATRQVAVGWPPLRTYRINSLVNQAKSLATEGGLSSGIQKETTKSVVVAAKNDDACFIKSSRTSMLVKVTMDGVIIGRKVDLNALDSYAALEKTLDLMFFQIPSPVTRSNTQGYKTIKETCTSKLLDGSSEYIITYQDKDGDWMLVGDVPWQMFLGSVTRLRIMKTSIGAGVGK
B12: IAA19 (AT3G15540), library prey (protein, UniProt O24409 1-197)
chain: MEKEGLGLEITELRLGLPGRDVAEKMMKKRAFTEMNMTSSGSNSDQCESGVVSSGGDAEKVNDSPAAKSQVVGWPPVCSYRKKNSCKEASTTKVGLGYVKVSMDGVPYLRKMDLGSSQGYDDLAFALDKLFGFRGIGVALKDGDNCEYVTIYEDKDGDWMLAGDVPWGMFLESCKRLRIMKRSDATGFGLQPRGVDE
B13: AT3G19860, library prey (protein, UniProt Q9LT23 1-337)
chain: MGIRENGIMLVSRERERARRLENRESIFAEPPCLLLAHRISPSPSILPAEEEVMDVSARKSQKAGREKLRREKLNEHFVELGNVLDPERPKNDKATILTDTVQLLKELTSEVNKLKSEYTALTDESRELTQEKNDLREEKTSLKSDIENLNLQYQQRLRSMSPWGAAMDHTVMMAPPPSFPYPMPIAMPPGSIPMHPSMPSYTYFGNQNPSMIPAPCPTYMPYMPPNTVVEQQSVHIPQNPGNRSREPRAKVSRESRSEKAEDSNEVATQLELKTPGSTSDKDTLQRPEKTKRCKRNNNNNSIEESSHSSKCSSSPSVRDHSSSSSVAGGQKPDDAK
B14: IAA20 (AT2G46990), library prey (protein, UniProt O24410 1-175)
chain: MGRGRSSSSSSIESSSKSNPFGASSSTRNLSTDLRLGLSFGTSSGTQYFNGGYGYSVAAPAVEDAEYVAAVEEEEENECNSVGSFYVKVNMEGVPIGRKIDLMSLNGYRDLIRTLDFMFNASILWAEEEDMCNEKSHVLTYADKEGDWMMVGDVPWEMFLSTVRRLKISRANYHY
B15: ATCKA2 (AT3G50000), library prey (protein, UniProt Q08466 1-403)
chain: MHLIFFFSYFLRRYLLLLCAILILRAPLAHSLIPPLTCVNTGTVESDVTGIRFDRCLDTDSLAKISLSTVMSKARVYTDVNVIRPKDYWDYESLNVQWGEQDDYEVVRKVGRGKYSEVFEGINMNNNEKCIIKILKPVKKKKIRREIKILQNLCGGPNIVKLLDVVRDQHSKTPSLIFEYVNSTDFKVLYPTLTDYDIRYYIYELLKALDFCHSQGIMHRDVKPHNVMIDHELRKLRLIDWGLAEFYHPGKEYNVRVASRYFKGPELLVDLQDYDYSLDMWSLGCMFAGMIFRKEPFFYGHDNQDQLVKIAKVLGTDELNAYLNKYQLELDTQLEALVGRHSRKPWSKFINADNRHLVSPEAIDYLDKLLRYDHQDRLTAKEAMAHPYFAQVRAAESSRMRTQ
B16: A. thaliana indole-3-acetic acid inducible 4 (IAA4), library prey (protein, UniProt P33077 1-186)
chain: MEKVDVYDELVNLKATELRLGLPGTEETVSCGKSNKRVLPEATEKEIESTGKTETASPPKAQIVGWPPVRSYRKNNVQTKKSESEGQGNYVKVSMDGAPYLRKIDLTMYKQYPELMKSLENMFKFSVGEYFEREGYKGSDFVPTYEDKDGDWMLVGDVPWEMFVSSCKRLRIMKGSEVKGLGCGGL

One experiment has as its target Novel Interactor of JAZ (NINJA), bait (A. thaliana) (UniProt Q9SV55). Description: two-hybrid; binary Y2H, GAL4 system, S. cerevisiae PJ69-4α co-transformed with bait (GAL4 DBD) and prey (GAL4 AD); 30°C; growth on SD-Leu-Trp-His against SD-Leu-Trp.
Consider “PPD1, cloned prey (from UniProt Q7XA73 1-313)”, for which the binding result is on record as “binds”.
Consider B1, for which the binding entry was “binds”.
As for B2, the binding entry is recorded as “binds”.
Still for that read-out and setting: to B3 belongs “no binding”.

A further experiment deals with T1, TOPLESS amino-terminal region (TPL-N), bait (A. thaliana) (UniProt Q94AI7).
T1 sequence: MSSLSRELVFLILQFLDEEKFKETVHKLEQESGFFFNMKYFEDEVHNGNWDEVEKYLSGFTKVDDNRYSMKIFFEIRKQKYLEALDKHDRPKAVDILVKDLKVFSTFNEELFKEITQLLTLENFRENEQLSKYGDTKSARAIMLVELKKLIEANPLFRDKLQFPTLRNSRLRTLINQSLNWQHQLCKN
Description: two-hybrid; library screen (Y2H-seq): PJ69-4α bait strain transformed with the A. thaliana AT7 cDNA prey library; SD-Leu-Trp-His + 5 mM 3-AT; preys identified by Sanger sequencing of colonies, qPCR and NGS of pooled prey inserts, against an EMPTY bait screen or the library. Background: In qPCR the cycle at which signal appears reflects the starting amount.
With “IAA17 (AT1G04250), library prey (from UniProt P93830 1-229)”, the binding result was “binds”.
As to “AGL21 (AT4G37940), library prey (from UniProt Q9SZJ6 1-228)”, the binding entry is “binds”.
Same read-out and setting: the result for B4 reads “binds”.
For B5, the binding entry is given as “binds”.
In the case of B6, the binding entry is “binds”.
Same read-out and setting: to B7 belongs “binds”; to B8, “binds”.
As for B9, the binding entry was “binds”.
As for B10, the binding result is listed as “binds”.
For B11, the binding entry is on record as “binds”.
Turning to B12, the binding entry is listed as “binds”.
On the same count and under the same terms, the result for B13 reads “binds”.
Take B14: the binding result is “binds”.
On to B15, for which the binding entry is “no binding”.
Same read-out and setting: to B16 belongs “binds”.

Source of the values: article PMC6303091.
